Measurements taken from PubChem BioAssay AID1963576 (National Center for Advancing Translational Sciences (NCATS), 2024).
Among all 46,000 compounds or so, about 60 (0.1%) were called active. Not shown: some 3% with an inconclusive outcome. Calls follow the shape of the dose curve; as a rule, active = well fitted inhibition curve with a large enough effect; inconclusive = small, poorly fitted or top-dose-only effect; inactive = no such curve, though single readings can be large or run the other way. The list shows a part of the results.

test: Primary qHTS assay for Inhibitors of ovarian cancer metastasis using an organotypic tumor microenvironment (TME) model.; also: nearly all actives have a fitted effect of over 65% in size;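 as to activity change, negative = inhibition: plate controls were DMSO wells for no effect and tomatine positive control wells for full effect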; details: SKOV3ip1-GFP adhesion/invasion on 3D omental model, fluorescence; series mostly up to 45.8 µM; activity change, negative = inhibition: at the top concentration
Outline: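 A 3D layer of primary human omental fibroblasts, mesothelial cells, fibronectin and collagen I, grown 48 hr, received SKOV3ip1-GFP cells in serum-free medium plus compounds at 0.36-46 umol/L. After 2 hr RT and 16 hr 37 C, fixed adherent GFP cells were counted; normalized to DMSO and tomatine.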

Activity change, negative = inhibition, inactive:
COc1ccc(OC)c2sc(N(Cc3cccnc3)C(=O)c3ccco3)nc12 -8.35%, Cc1cc(NC(=O)CN2C(=O)c3cccnc3Sc3ccccc32)ccc1Br 7.65%, CCc1ccccc1NC(=O)Nc1nnc(N(CC)c2ccccc2)s1 0.993%, CCOc1ccc(NC(=O)Cn2c(=O)n(CC(=O)NCc3ccccc3Cl)c(=O)c3sccc32)cc1 0.119%, C[C@H](CCC(=O)O)[C@H]1CC[C@H]2[C@H]3[C@@H](CC[C@]12C)[C@@]1(C)CC[C@@H](O)C[C@H]1C[C@@H]3O 0.902%, O=C(Nc1ccc(Br)cc1)C1CCCN1S(=O)(=O)c1ccc(F)cc1 (stereo not drawn) -2.39%, CC(C)(C)c1ccc(C(=O)Nc2sc3c(c2C#N)CCC(C(C)(C)C)C3)cc1 (stereo not drawn) 4.24%, COc1ccc(CNC(=O)c2oc3c(c2C)-c2nn(Cc4ccc(Cl)cc4)cc2CC3)cc1 -9.6%, CCCCCn1c(=O)[nH]c2cc(C(=O)N3CCN(c4cccc(C(F)(F)F)c4)CC3)ccc2c1=O -16%, CC(C)c1nn2c(=O)cc(COC(=O)c3ccccc3NC(=O)c3cccc(Cl)c3)nc2s1 20%, COc1ccc(CCNC(=O)CCn2c(=O)c3ccccc3n(Cc3ccccc3)c2=O)cc1OC 5.97%, COc1cc(OC)c(NS(=O)(=O)c2c(C(=O)N3CCC(C)CC3)c(C)n(C)c2C)cc1Cl -9.18%, Cc1nnc(NC(=O)CSCc2cc(=O)c3ccccc3[nH]2)s1 0.976%, CCS(=O)(=O)N1CC(=O)N(c2ccc(Cl)cc2)C(C)(C(=O)NC2CCCCCC2)C1 (stereo not drawn) -1.93%, COc1ccc(N2CCN(Cc3nnc(-c4cccc(Br)c4)o3)CC2)cc1 6.25%, Cc1cc(C)cc(Oc2nc3c(C)cccn3c(=O)c2/C=C(\C#N)c2nc3ccccc3s2)c1 -4.85%, COc1ccc(CCNC(=O)C(C)n2c(=O)cc(C(F)(F)F)c3c(C)nn(C)c32)cc1OC (stereo not drawn) 9.73%, CCc1ccc(C(=O)c2cn(Cc3ccc(F)cc3)c3cc(OC)c(OC)cc3c2=O)cc1 3.9%, COC(=O)c1ccccc1NC(=O)c1cnc2c(-c3cccc(C)c3)c(C)nn2c1C 8.04%, Cc1nc2ccn(Cc3cccnc3)c(=O)c2cc1C(=O)N1CCN(c2ccc(F)cc2)CC1 -3.9%, CC(C)Cn1c(-c2ccc(S(=O)(=O)N3CCOCC3)cc2)csc1=Nc1cc(Cl)ccc1Cl 4.08%, COc1cccc(NC(=O)/C(C#N)=C/c2c(C)n(Cc3ccc(Cl)cc3)c3ccccc23)c1 -7.28%, CC(=O)c1cc(-c2ccc(F)cc2)n(CC(=O)Nc2cc(C)cc(C)c2)c1C -2.79%, Cc1ccc(C(C)C)c(OCCSc2nc3ccccc3n2CC(O)CO)c1 (stereo not drawn) -22.9%, Cc1cc2nc(-c3ccc(NC(=O)c4cc5ccccc5o4)cc3)oc2cc1C -7.28%, CCOc1ccc(Nc2nc3c(S(=O)(=O)c4ccc(C(C)C)cc4)nnn3c3ccsc23)cc1 -8.85%, COc1ccc(N2CCN(S(=O)(=O)CCNC(=O)c3c(F)cccc3Cl)CC2)cc1 12%, COc1cccc(CNC(=O)CCC(=O)N2CC(C)Sc3ccccc32)c1 (stereo not drawn) -24.2%, CCc1nnc2c3ccccc3nc(N3CCN(c4cc(C)ccc4C)CC3)n12 6.2%, Cc1ccccc1CNC(=O)c1ccc(CN2CC(=O)N3CCCCC3C2=O)cc1 (stereo not drawn) -8.31%, CCCN(CCC)C(=O)C1CCCN(c2ncnc3c2nc2n3CCCCC2)C1 (stereo not drawn) 0.184%, Cc1nc2c(c(C)nn2C(C)(C)C)c(C)c1CCC(=O)Nc1ccc(Br)cc1Br -4.87%, Cc1ccc(NS(=O)(=O)c2c(C)nc3sc(C)cn3c2=O)c(C)c1 5.41%, Cc1ccc(S(=O)(=O)c2nnn3c2nc(N2CCC(C(N)=O)CC2)c2cc(Cl)ccc23)cc1C -21.4%, Cc1ccc(NC(=O)[C@@H](c2ccccc2)N2Cc3ccccc3C2=O)cc1F -9.85%, CCC(=O)Nc1cc2nn(-c3ccc(C)cc3)nc2cc1C -3.53%, C[C@@H](Oc1cc(-n2cnc3ccc(CN4CCN(C)CC4)cc32)sc1C(N)=O)c1ccccc1C(F)(F)F 0.642%, CCOC(=O)Cn1c(=O)n(CC2CCCO2)c2nc(-c3ccc(CC)cc3)nc(C(N)=O)c21 (stereo not drawn) 2.04%, Cc1c(C(=O)NCc2ccc(F)cc2)sc2nc(-c3ccc(F)cc3)cn12 3.94%, COc1ccc(CCNC(=O)Cn2c(=O)c3cccn3c3ccccc32)cc1OC -2.97%, CCCc1nn2c(=O)cc(COC(=O)c3ccco3)nc2s1 -3.62%, Cc1noc(Cn2c(=O)c3ccccc3n(CC(=O)Nc3ccc(C(C)C)cc3)c2=O)n1 -0.528%, CCN(CC)c1cc2c(cc1F)c(=O)c(S(=O)(=O)c1ccccc1)cn2C -2.7%, CCn1cc(S(=O)(=O)c2ccc(C)cc2C)c(=O)c2cc(F)c(N3CCCCC3)cc21 -2.29%, Cc1cc(C)cc(N(CC(=O)NCc2ccccc2Cl)S(=O)(=O)c2c(C)[nH]c(=O)[nH]c2=O)c1 0.797%, CCc1cccc(NS(=O)(=O)c2cc(-c3cnc(C)o3)ccc2OC)c1 67.2%

outcome, inactive:
Cc1ccc(CNC(=O)CNS(=O)(=O)c2cccs2)cc1, Cc1ccc(NC(=O)C2CCN(c3nn4cc(-c5ccc(C)cc5)nc4s3)CC2)cc1, Cc1cc(Nc2ccc(C(=O)O)c(O)c2)n2ncnc2n1, COc1ccccc1Cc1nc2ccccc2nc1SCC(=O)N1CCN(c2ccccc2)CC1, COc1ccc(CCn2c3c(c(=O)[nH]c2=O)C(NC(=O)c2ccc(C(C)(C)C)cc2)(C(F)(F)F)C(=O)N3)cc1OC (stereo not drawn), O=C(NCc1ccco1)c1ccc2c(c1)N(Cc1ccc(Cl)cc1)C(=O)c1ccccc1S2, Cc1ccccc1CN1C(=O)c2ccccc2S(=O)c2ccc(C(=O)NCc3ccc4c(c3)OCO4)cc21 (stereo not drawn), O=C(CSc1ncc2c(n1)-c1ccc(Cl)cc1N(Cc1ccccc1)S2(=O)=O)Nc1ccccc1C(F)(F)F, CC(=O)Nc1c(C)nn(-c2ccccc2)c1N1CCC(C(=O)Nc2cccc(C(F)(F)F)c2)CC1, CCCCOc1ccccc1C1CC(=O)Nc2cc(OC)c(OC)cc21 (stereo not drawn), COC(=O)c1c(NC(=O)/C=C/c2ccc(OC)c(OC)c2)sc2c1CCC2, CCOC(=O)Cn1c(=O)n(CC2CCCO2)c2nc(-c3c(F)cccc3Cl)nc(C(N)=O)c21 (stereo not drawn)
